In PubChem BioAssay AID686979 (National Center for Advancing Translational Sciences (NCATS), 2013):
Where “and” joins values, the source holds several entries; their conditions need not be identical. Identical values can stand only once. Screen size: about 420,000 compounds; about 50,000 (12%) were called active. Inconclusive means that the source gave no clear call. Such entries were picked first, then a sample of the others. The call rests on the fitted dose curve; in most records, active means well fitted inhibition curve with a large enough effect; inconclusive means small, poorly fitted or top-dose-only effect; inactive means flat fitted curve, though single readings scatter. Where the call is inconclusive, the potency comes from a doubtful curve fit.

test: qHTS for Inhibitors of human tyrosyl-DNA phosphodiesterase 1 (TDP1): qHTS in cells in presence of CPT; conditions: chicken DT40 Tdp1-/-;hTDP1 cells + 20 nM CPT, ATP luminescence, 48 h; activity change, negative = growth inhibition: at 46.2 µM (top of the series) unless noted; further: nearly all actives have a fitted effect of over 55% in size
Procedure, shortened: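 Chicken DT40 Tdp1-/- cells complemented with human TDP1, 400 cells/well, exposed to compounds plus 20 nM camptothecin for at least 48 h at 37 C; viability read as ATP content by CellTiter-Glo luminescence.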
On the % scale 0 is the no-effect control and ±100 the full control effect; potency means the concentration at half of the fitted maximal effect; tags describe the fitted curve by direction and shape.

SMILES | Potency | activity change, negative = growth inhibition
CCOC(=O)C1(C)CCCN(C(=O)c2c(-c3ccccc3)noc2C)C1 (stereo unspecified) | active: 13 µM | –
COc1cccc(CN(C)C(=O)c2cccc(S(=O)(=O)N3CCN(c4ccccc4)CC3)c2)c1OC | active: 18.4 µM | –
CC(C)(C)c1ccc(C(=O)NCC(c2ccco2)S(=O)(=O)c2ccc(F)cc2)cc1 (stereo unspecified) | active: 20.6 µM | –
COc1ccc(-n2cnc3cc(C(=O)NC4CCCC4)ccc32)cc1 | inconclusive: 16.4 µM [inhibitor, single point] and inconclusive: 8.2 µM [inhibitor, partial curve] | –
COc1ccc(OC)c(CN2CCN(C(=O)CNC(=O)c3ccccc3F)CC2)c1 | – | inactive: -24.6%
O=C(CSc1c2c(nc3ccccc13)CCC2)Nc1ccc(F)cc1 | inconclusive: 29.1 µM [inhibitor, single point] | –
O=C1NC[C@H](Cc2ccccc2)N(C[C@H]2CCCN2C[C@H](Cc2ccccc2)N2C[C@H](Cc3ccccc3)N(CC3CCCCCC3)C(=O)C2=O)C1=O | inconclusive: 18.4 µM [inhibitor, single point] | –
CC(C)CN(C(=O)c1cccc(F)c1)c1c(N)n(CC(C)C)c(=O)[nH]c1=O | – | inactive: 4.32%
COc1ccc(-c2cn3cccnc3n2)cc1NC(=O)c1ccc(Br)o1 | active: 15.8 µM | –
O=c1c(-c2cccs2)nc2cncnc2n1-c1ccccc1 | inconclusive: 29.1 µM [inhibitor, single point] | –
COc1ccccc1OCC(=O)Nc1c2c(nn1-c1ccc(F)cc1)CS(=O)(=O)C2 | – | inactive: -5.24%
O=C(CNc1cc(S(=O)(=O)N2CCOCC2)ccc1N1CCCC1)Nc1ccc(Cl)cc1 | active: 18.4 µM | –
CCOCCCNCc1cccc(OCc2ccc(F)cc2)c1 | inconclusive: 20.6 µM [inhibitor, single point] | –
CCCOc1ccc(C(=O)N(Cc2ccccc2Cl)C2CCS(=O)(=O)C2)cc1 (stereo unspecified) | inconclusive: 16.4 µM [inhibitor, partial curve] | –
COc1ccc(C2=Nc3ccc(F)cc3NC(c3cccc(C(F)(F)F)c3)=N2)cc1 | active: 23.1 µM | –
COc1ccc(C)cc1S(=O)(=O)N1CCCC(C(=O)N2CCOCC2)C1 (stereo unspecified) | – | inactive: -1.25%
O=C(NCc1ccc(Cl)cc1)c1ccccc1CCc1ccccc1 | – | inactive: -11.8%
Oc1cccc(/C=N/Nc2cccc3cccnc23)c1 | inconclusive: 16.4 µM [inhibitor, single point] | –
Cc1cc(C(=O)Nc2cccnc2)no1 | inconclusive: 18.4 µM [inhibitor, partial curve] | –
CCc1ccc(-c2nn(-c3ccccc3)cc2C2SCC(=O)N2Cc2ccco2)cc1 (stereo unspecified) | inconclusive: 29.1 µM [inhibitor, single point] | –
COC(=O)[C@H](C)NC(=O)Nc1cc(Cl)ccc1C | – | inactive: 0.875%
S=C1Nc2ccccc2Sc2ccc(Cl)cc21 | inconclusive: 29.1 µM [inhibitor, single point] | –
COc1ccc(CNC(=O)CCn2c(=O)c3cccn3c3ccc(F)cc32)cc1 | inconclusive: 18.4 µM [inhibitor, single point] | –

SMILES | Potency | activity change, negative = growth inhibition
CCN(CC)C(=O)CC(c1ccc2c(c1)OCO2)c1c(O)cc(OC)cc1OC (stereo unspecified) | inconclusive: 29.1 µM [inhibitor, single point] | –
CCc1ccc2ncc(C(=O)c3ccc(C)c(C)c3)c(N3CCC(C(N)=O)CC3)c2c1 | active: 23.1 µM | –
COc1ccccc1NC(=O)c1cnc2c(-c3ccccc3)c(C)nn2c1C | – | inconclusive: -31.1% [inhibitor]
CCN(CC)S(=O)(=O)c1cc(C(=O)Nc2cccnc2Cl)ccc1Cl | – | inactive: 5.26%
CCOc1ccc(CCNC(=O)C2(c3ccccc3)CC2)cc1OCC | inconclusive: 29.1 µM [inhibitor, single point] | –
CCN(CC)C(c1ccc(C)cc1)c1nnnn1C1CCCCC1 (stereo unspecified) | inconclusive: 29.1 µM [inhibitor, single point] | –
Cc1nn(C)cc1/C=N\NC(=O)c1ccc2c(c1)c(C)c(C)n2Cc1ccccc1 | – | inactive: -6.6%
CCc1ccc(-c2cc(C)no2)cc1S(=O)(=O)N1CCOc2ccc(C)cc21 | inconclusive: 29.1 µM [inhibitor, single point] | –
NC(N)=N/N=C/c1ccc(OCc2ccccc2)c(OCc2ccccc2)c1 | inconclusive: 29.1 µM [inhibitor, single point] | –
CCn1nc(NC(=O)c2ccco2)c2cc3cc(C)ccc3nc21 | inconclusive: 29.1 µM [inhibitor, single point] | –
CCOc1ccccc1N(CC(=O)NC1CCCCC1)S(=O)(=O)c1ccc(C)cc1 | inconclusive: 29.1 µM [inhibitor, single point] | –
C(=Nc1cnc2ccccc2c1)c1ccncc1 | – | inactive: -2.77%
O=C(NC1CC1)C1=C[C@@H](c2coc3ccccc3c2=O)C[C@@H](OCc2ccc(CO)cc2)O1 | inconclusive: 29.1 µM [inhibitor, single point] | –
COC(=O)c1ccccc1NC(=O)c1cnc(Nc2ccc(OC)cc2)c2ccccc12 | active: 23.1 µM | –
COCCn1c(=O)c(-c2ccccc2)nc2cnc(Nc3ccccc3)nc21 | – | inactive: 12.2%
CC(C)(C)n1nc2c(c1NC(=O)c1cc([N+](=O)[O-])ccc1Cl)CS(=O)(=O)C2 | inconclusive: 29.1 µM [inhibitor, single point] | –
Cc1nn(-c2ccccc2)c(N2CCCC2)c1/C=N/NC(=O)C1CC1 | inconclusive: 29.1 µM [inhibitor, single point] | –
COc1ccc(/C=N/N2CCOCC2)cc1O | – | inactive: 12.3%
Cc1cc(NC(=O)CSc2nnc3ccc(-c4ccc(F)cc4)nn23)no1 | – | inactive: 22.3%
CCN(CC(=O)Nc1c(F)cccc1F)C(=O)c1ccc(N2CCCC2)c([N+](=O)[O-])c1 | – | inconclusive: -30.3% [inhibitor]
Nc1c2c(=O)[nH]c(O)cc2nn1-c1ccccc1 | – | inactive: -24%
Cc1ccc(C23CC4CC(CC(C(=O)N5CCN(C)CC5)(C4)C2)C3)cc1 | inconclusive: 20.6 µM [inhibitor, single point] | –
CSc1nnc(C(C)c2ncc(C(F)(F)F)cc2Cl)n1C (stereo unspecified) | – | inactive: 6.17%
